The test system of the assay is Trichoderma virens ATCC 9645. Kind of assay: growth yield (OD600) relative to untreated control; higher = less growth inhibition. As to conditions: compound concentration: 100 uM. In a few lines: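 Trichoderma virens ATCC 9645 spores from 7-day potato dextrose agar plates were suspended in potato dextrose broth at 15,000 spores ml^−1. Aliquots of 100 μl with library compounds at 100 μM final, with or without a co-applied biocide at 200 ng ml^−1, were grown in 96-well plates at 30 °C. OD600 was read at 40 h and 72 h on a BioTek EL800. Growth is expressed relative to the control without either agent, as means of duplicate screens.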

Counter-ions that a name gives are not always drawn. ± gives the standard error. About 75 (6%) of roughly 1,300 compounds showed an effect of 50% or more. This is one part of the list.

`O=C1Nc2ccc(Cl)cc2[C@@](C#CC2CC2)(C(F)(F)F)O1` [Efavirenz]: the growth yield is, setting by setting: (40 h) 65 ± 3.6%; (72 h) 101 ± 5.3%.
The matching figures for `Nc1ccc(C(=O)O)c(O)c1` [4-aminosalicylic acid]: 93.1% and 89.36 ± 0.42%.
For `CC[N+](C)(CC)CCC[n+]1c(-c2ccccc2)c2cc(N)ccc2c2ccc(N)cc21` [Propidium iodide] the same measures were 83.7 ± 2.4% and 93.2 ± 2.4%.
For `O=C(O)c1ccccc1Nc1cccc(C(F)(F)F)c1` [Flufenamic acid] the same measures were 51 ± 11% and 69.3 ± 8.1%.
In the case of `O=C1O[C@H]([C@@H](O)CO)C(O)=C1O` [Ascorbic acid], the growth yield reads like this: (40 h) 99.6 ± 1.4%; (72 h) 100 ± 1.6%.
For `Clc1ccc(C(c2ccccc2Cl)C(Cl)Cl)cc1` (stereo not given) [Mitotane] the same measures were 85.6 ± 2.4% and 91.3 ± 2%.
The matching figures for `Cc1cccc(C)c1OCC(=O)N[C@@H](Cc1ccccc1)[C@@H](O)C[C@H](Cc1ccccc1)NC(=O)[C@H](C(C)C)N1CCCNC1=O` [Lopinavir]: 101 ± 7.2% and 112.2 ± 0.63%.
As to `CN(C)CCOC(=O)C(c1ccccc1)C1(O)CCCC1` (stereo not given) [Cyclopentolate hydrochloride], the growth yield by setting is: (40 h) 101 ± 7.3%; (72 h) 99.4 ± 6.7%.
For `Nc1ccc(/N=N/c2ccccc2)c(N)n1` [Phenazopyridine hydrochloride] the same measures were 21.1 ± 1.4% and 49.4 ± 6.2%.
For `CCC(=O)O[C@]1(C(=O)SCF)[C@H](C)C[C@H]2[C@@H]3C[C@H](F)C4=CC(=O)C=C[C@]4(C)[C@@]3(F)[C@@H](O)C[C@@]21C` [Fluticasone propionate] the same measures were 106 ± 7.2% and 101 ± 3.8%.
On to `OCCN1CCN(CC/C=C2/c3ccccc3Sc3ccc(Cl)cc32)CC1` [Zuclopenthixol dihydrochloride], for which the growth yield (40 h) was found to be 15.1 ± 1.8% and the growth yield (72 h) stood at 60.4 ± 5.7%.
For `Nc1nc(/C(=C/CC(=O)O)C(=O)N[C@@H]2C(=O)N3C(C(=O)O)=CCS[C@H]23)cs1` [Ceftibuten] the same measures were 89.9 ± 1.3% and 88.3 ± 3.6%.
On to `CCc1nn(CCCN2CCN(c3cccc(Cl)c3)CC2)c(=O)n1CCOc1ccccc1` [Nefazodone hydrochloride], for which the growth yield (40 h) turned out to be 93.88 ± 0.16% and the growth yield (72 h) was determined as 107 ± 1.8%.
For the molecule `CCCNC(C)(C)COC(=O)c1ccccc1` [Meprylcaine hydrochloride], the growth yield is, setting by setting: (40 h) 105 ± 4.8%; (72 h) 102 ± 3.9%.
For `C[N+](C)(CCOc1ccccc1)Cc1ccccc1.O=C([O-])c1cc2ccccc2cc1O` [Bephenium hydroxynaphthoate] the same measures were 73.2 ± 1.1% and 79.6 ± 2.2%.
With `CC(NCCc1ccc(O)cc1)C(O)c1ccc(O)cc1` (stereo not given) [Ritodrine hydrochloride], the growth yield by setting is: (40 h) 103 ± 2.5%; (72 h) 107 ± 1.3%.
The matching figures for `CCC1(C)CC(=O)NC1=O` (stereo not given) [Ethosuximide]: 102.6 ± 0.32% and 103 ± 1.1%.
For `NC1CCN(c2c(F)cc3c(=O)c(C(=O)O)cn(C4CC4)c3c2Cl)C1` (stereo not given) [Clinafloxacin] the same measures were 97.7 ± 4.6% and 95.5 ± 2.6%.
For `CCCc1nn(C)c2c(=O)[nH]c(-c3cc(S(=O)(=O)N4CCN(C)CC4)ccc3OCC)nc12` [Sildenafil] the same measures were 99.6 ± 4.3% and 95.1 ± 4.5%.
In the case of `CCC(C)(C)C(=O)O[C@H]1C[C@@H](C)C=C2C=C[C@H](C)[C@H](CC[C@@H]3C[C@@H](O)CC(=O)O3)[C@H]21` [Simvastatin], the growth yield by setting is: (40 h) 103 ± 1.3%; (72 h) 96.2 ± 4.5%.
For `CC(=O)Oc1ccc(C(c2ccc(OC(C)=O)cc2)c2ccccn2)cc1` [Bisacodyl] the same measures were 105% and 98.6%.
For `Cc1ccccc1OCC(O)CO` (stereo not given) [Mephenesin] the same measures were 98 ± 3.3% and 99.5 ± 3.5%.
For `O=C1CN(/N=C/c2ccc([N+](=O)[O-])o2)C(=O)N1` [Nitrofurantoin] the same measures were 95.3 ± 0.64% and 97.5 ± 1.3%.
Molecule `C[C@H](N)[C@H](O)c1cccc(O)c1` [Metaraminol bitartrate] gave a growth yield (40 h) of 102 ± 2.4% and a growth yield (72 h) of 104 ± 1.7%.
Turning to `CCN(CC)CCOC(=O)C(Cc1cccc2ccccc12)CC1CCCO1` (stereo not given) [Nafronyl oxalate], the growth yield is, setting by setting: (40 h) 94.8 ± 4%; (72 h) 102 ± 1.7%.
The matching figures for `O=C1CN(/N=C/c2ccc(-c3ccc([N+](=O)[O-])cc3)o2)C(=O)N1` [Dantrolene sodium salt]: 93.4 ± 2.2% and 99.7 ± 1.4%.
For `CCOC(=O)n1ccn(C)c1=S` [Carbimazole] the same measures were 97.5% and 91.5%.
For `CC1(C)S[C@@H]2[C@H](NC(=O)[C@H](C(=O)O)c3ccsc3)C(=O)N2[C@H]1C(=O)O` [Ticarcillin sodium] the same measures were 110 ± 1.9% and 104.2 ± 0.42%.
On to `CN[C@@H]1[C@@H](O)[C@@H](O[C@@H]2[C@@H](O)[C@H](O[C@H]3OC(CN)=CC[C@H]3N)[C@@H](N)C[C@H]2N)OC[C@]1(C)O` [Sisomicin sulfate], for which the growth yield runs as follows: (40 h) 105 ± 2.7%; (72 h) 102 ± 1.7%.
With `Cc1cc(NS(=O)(=O)c2ccc(N)cc2)no1` [Sulfamethoxazole], the growth yield runs as follows: (40 h) 40 ± 4.8%; (72 h) 82.9 ± 2.1%.
The molecule `CC[C@H]1OC(=O)C[C@@H](O)[C@H](C)[C@@H](O[C@@H]2O[C@H](C)[C@@H](O[C@H]3C[C@@](C)(O)[C@@H](O)[C@H](C)O3)[C@H](N(C)C)[C@H]2O)[C@@H](CC=O)C[C@@H](C)C(=O)/C=C/C(C)=C/[C@@H]1CO[C@@H]1O[C@H](C)[C@@H](O)[C@@H](OC)[C@H]1OC` [Tylosin] registered a growth yield (40 h) of 95.94 ± 0.32% and a growth yield (72 h) of 94.2 ± 1.9%.
As for `O=C(CCCCCCC(=O)Nc1ccccc1)NO` [Vorinostat], the growth yield (40 h) worked out at 108.2 ± 0.79% and the growth yield (72 h) turned out to be 99.74 ± 0.73%.
Turning to `CCNC(=O)CCC/C=C\C[C@@H]1[C@@H](/C=C/[C@@H](O)CCc2ccccc2)[C@H](O)C[C@@H]1O` [Bimatoprost], the growth yield was 104 ± 1.6% (40 h) and 99.32 ± 0.1% (72 h).
The matching figures for `COC(=O)C1=C(C)NC(C)=C(C(=O)OC2CCCN(Cc3ccccc3)C2)C1c1cccc([N+](=O)[O-])c1` (stereo not given) [Benidipine hydrochloride]: 101 ± 5.4% and 111 ± 2%.
The matching figures for `C[C@]12C[C@H](O)[C@H]3[C@@H](CCC4=CC(=O)CC[C@@]43C)[C@@H]1CC[C@@H]2C(=O)CO` [Corticosterone]: 101 ± 6.7% and 104 ± 6.8%.
The matching figures for `CC1(C)O[C@@H]2C[C@H]3[C@@H]4CCC5=CC(=O)C=C[C@]5(C)[C@H]4[C@@H](O)C[C@]3(C)[C@]2(C(=O)CO)O1` [Desonide]: 109 ± 11% and 98.7 ± 6.6%.
For `CCN(CC)C(=S)SSC(=S)N(CC)CC` [Disulfiram], the growth yield stood at 27.2 ± 17% (40 h) and 67.8 ± 12% (72 h).
For `C/C(=C(\CCOP(=O)(O)O)SC(=O)c1ccccc1)N(C=O)Cc1cnc(C)nc1N` [Benfotiamine] the same measures were 99.75 ± 0.64% and 96.38 ± 0.1%.
Consider `Nc1c2c(nc3ccccc13)CCCC2` [Tacrine hydrochloride], for which the growth yield runs as follows: (40 h) 104 ± 5.1%; (72 h) 106 ± 3.7%.
The matching figures for `CCCCN(CCCC)CCC(O)c1cc2c(Cl)cc(Cl)cc2c2cc(C(F)(F)F)ccc12` (stereo not given) [Halofantrine hydrochloride]: 25.6 ± 6.2% and 95.9%.

For the origin of these results see the supplement of paper PMC8007513.
